The source of these data is the GPR68 mutational scans of Howard et al. (2025).

B1: GPR68, Q15743 (parent)
chain: MGNITADNSSMSCTIDHTIHQTLAPVVYVTVLVVGFPANCLSLYFGYLQIKARNELGVYLCNLTVADLFYICSLPFWLQYVLQHDNWSHGDLSCQVCGILLYENIYISVGFLCCISVDRYLAVAHPFRFHQFRTLKAAVGVSVVIWAKELLTSIYFLMHEEVIEDENQHRVCFEHYPIQAWQRAINYYRFLVGFLFPICLLLASYQGILRAVRRSHGTQKSRKDQIQRLVLSTVVIFLACFLPYHVLLLVRSVWEASCDFAKGVFNAYHFSLLLTSFNCVADPVLYCFVSETTHRDLARLRGACLAFLTCSRTGRAREAYPLGAPEASGKSGAQGEEPELLTKLHPAFQTPNSPGSGGFPTGRLA

Scores with a large standard error are left out. Two further conditions of the source, in which the scores hardly spread, are not listed. Names with del lack the residues named; names with ins carry added residues between the positions named. For some of these results: The data file names ogerin without a concentration.

Data set [1] covers variants of B1. Briefly: cAMP reporter score (Enrich2 score, wild type = 0); higher = more signal; HEK293T, FACS bins.
Variants of B1 are the subject of data set [2]. Briefly: surface expression score (Enrich2 score, wild type = 0); higher = more signal; HEK293T, FACS bins.

For Q83S, the cAMP reporter score in data set [1] (pH 5.5) is -0.29; in data set [1] (pH 6), -0.496; in data set [1] (pH 6, modulator: ogerin) it was -0.188; in data set [1] (pH 6.5, modulator: ogerin), -0.51. Besides, in data set [2], the surface expression score came to 1.3.

As for Q83L, the cAMP reporter score in data set [1] (pH 5.5) is 0.643; in data set [1] (pH 6), -0.749; in data set [1] (pH 6, modulator: ogerin), -0.522; in data set [1] (pH 6.5, modulator: ogerin), -0.218. For the same variant, in data set [2], the surface expression score was -0.338.

Consider Q83N, for which the cAMP reporter score in data set [1] (pH 5.5) stood at 0.505; in data set [1] (pH 6), 1.16; in data set [1] (pH 6, modulator: ogerin) it was 2.12; in data set [1] (pH 6.5, modulator: ogerin), 1.84. In data set [2], the surface expression score turned out to be 1.31.

Regarding Q83E, the cAMP reporter score is -0.146 in data set [1] (pH 5.5); -0.403 in data set [1] (pH 6); -0.101 in data set [1] (pH 6, modulator: ogerin); -0.691 in data set [1] (pH 6.5, modulator: ogerin). In data set [2], the surface expression score is -0.645.

Turning to Q83D, the cAMP reporter score was 0.064 in data set [1] (pH 5.5); -0.893 in data set [1] (pH 6); -0.649 in data set [1] (pH 6, modulator: ogerin); -1.81 in data set [1] (pH 6.5, modulator: ogerin).

Take Q83G: the cAMP reporter score in data set [1] (pH 5.5) is -0.774; in data set [1] (pH 6), -0.967; in data set [1] (pH 6, modulator: ogerin) it was -1.13; in data set [1] (pH 6.5, modulator: ogerin) it was -0.675. Also, the surface expression score in data set [2] turned out to be 0.673.

For Q83Y, the cAMP reporter score in data set [1] (pH 5.5) is -0.932; in data set [1] (pH 6), -0.598; in data set [1] (pH 6, modulator: ogerin) it was -1.43; in data set [1] (pH 6.5, modulator: ogerin), -0.748. In addition, the surface expression score in data set [2] is -0.274.

Regarding Q83I, the cAMP reporter score in data set [1] (pH 5.5) was -0.964; in data set [1] (pH 6, modulator: ogerin), -0.686; in data set [1] (pH 6.5, modulator: ogerin), -0.98. Moreover, the surface expression score in data set [2] was -1.29.

As for Q83R, the cAMP reporter score is 0.11 in data set [1] (pH 5.5); 0.592 in data set [1] (pH 6, modulator: ogerin); -0.249 in data set [1] (pH 6.5, modulator: ogerin). For the same variant, the surface expression score in data set [2] amounted to 1.4.

Regarding Q83K, the cAMP reporter score in data set [1] (pH 5.5) is -0.259; in data set [1] (pH 6), -1.07; in data set [1] (pH 6, modulator: ogerin), -0.665; in data set [1] (pH 6.5, modulator: ogerin) it was -0.86. Also, in data set [2], the surface expression score was determined as 0.629.

Take Q83A: the cAMP reporter score is 0.006 in data set [1] (pH 5.5); -0.092 in data set [1] (pH 6); 0.285 in data set [1] (pH 6, modulator: ogerin); -0.852 in data set [1] (pH 6.5, modulator: ogerin). Besides, the surface expression score in data set [2] was 0.648.

With Q83M, the cAMP reporter score in data set [1] (pH 5.5) is -0.41; in data set [1] (pH 6), -1.09; in data set [1] (pH 6, modulator: ogerin), -0.719; in data set [1] (pH 6.5, modulator: ogerin), -0.871. The surface expression score in data set [2] is -0.642.

Regarding Q83F, the cAMP reporter score in data set [1] (pH 5.5) was -1.35; in data set [1] (pH 6) it was -0.822; in data set [1] (pH 6, modulator: ogerin) it was -1.31; in data set [1] (pH 6.5, modulator: ogerin) it was -1.46. The surface expression score in data set [2] was -1.16.

On to Q83V, for which the cAMP reporter score in data set [1] (pH 5.5) was -1.69; in data set [1] (pH 6), -1.72; in data set [1] (pH 6, modulator: ogerin), -2.3; in data set [1] (pH 6.5, modulator: ogerin), -1.61. Besides, the surface expression score in data set [2] was -0.29.

As for Q83H, the cAMP reporter score is 0.228 in data set [1] (pH 5.5); -0.64 in data set [1] (pH 6); 0.088 in data set [1] (pH 6, modulator: ogerin); -0.737 in data set [1] (pH 6.5, modulator: ogerin). Also, in data set [2], the surface expression score is -0.91.

Consider Q83C, for which the cAMP reporter score was -0.742 in data set [1] (pH 5.5); -0.423 in data set [1] (pH 6); -1.3 in data set [1] (pH 6, modulator: ogerin); -0.96 in data set [1] (pH 6.5, modulator: ogerin).

Turning to Q83T, the cAMP reporter score in data set [1] (pH 5.5) was -0.731; in data set [1] (pH 6), -0.89; in data set [1] (pH 6, modulator: ogerin) it was -1.15; in data set [1] (pH 6.5, modulator: ogerin), -1.19. Moreover, the surface expression score in data set [2] was 0.407.

On to Q83P, for which the cAMP reporter score in data set [1] (pH 5.5) is -1.85; in data set [1] (pH 6), -0.564; in data set [1] (pH 6, modulator: ogerin), -1.23; in data set [1] (pH 6.5, modulator: ogerin), -0.903. The surface expression score in data set [2] was -0.272.

Q83W: the cAMP reporter score in data set [1] (pH 5.5) was -0.447; in data set [1] (pH 6), -0.949; in data set [1] (pH 6, modulator: ogerin), -0.507; in data set [1] (pH 6.5, modulator: ogerin), -0.758. Besides, the surface expression score in data set [2] was -0.414.

Regarding V81_L82insGSG, the cAMP reporter score in data set [1] (pH 5.5) was -1.76; in data set [1] (pH 6), -0.751; in data set [1] (pH 6, modulator: ogerin), -1.45; in data set [1] (pH 6.5, modulator: ogerin), -1.46. Besides, the surface expression score in data set [2] is -0.523.

On to Q79_Y80del, for which the cAMP reporter score was -0.86 in data set [1] (pH 5.5); -1.32 in data set [1] (pH 6); -1.09 in data set [1] (pH 6, modulator: ogerin); -0.407 in data set [1] (pH 6.5, modulator: ogerin). Further, in data set [2], the surface expression score stood at 1.36.

Consider H84_N86del, for which the cAMP reporter score in data set [1] (pH 5.5) is -1.95; in data set [1] (pH 6) it was -1.44; in data set [1] (pH 6, modulator: ogerin), -1.1; in data set [1] (pH 6.5, modulator: ogerin), -1.63. Also, the surface expression score in data set [2] was -1.83.

Turning to Q79W, the cAMP reporter score is -1.48 in data set [1] (pH 5.5); -1.05 in data set [1] (pH 6); -1.62 in data set [1] (pH 6, modulator: ogerin); -1.12 in data set [1] (pH 6.5, modulator: ogerin). Besides, the surface expression score in data set [2] is 0.312.

Regarding Q79F, the cAMP reporter score in data set [1] (pH 5.5) is -1.9; in data set [1] (pH 6), -1.18; in data set [1] (pH 6, modulator: ogerin), -1.52; in data set [1] (pH 6.5, modulator: ogerin), -0.84. The surface expression score in data set [2] amounted to 0.748.

For the variant Q79D, the cAMP reporter score in data set [1] (pH 5.5) stood at 0.72; in data set [1] (pH 6) it was 0.631; in data set [1] (pH 6, modulator: ogerin) it was 0.985; in data set [1] (pH 6.5, modulator: ogerin), 0.233. For the same variant, the surface expression score in data set [2] was determined as 0.312.

For the variant Q79R, the cAMP reporter score in data set [1] (pH 5.5) is -1.25; in data set [1] (pH 6), -1.1; in data set [1] (pH 6, modulator: ogerin), -1.14; in data set [1] (pH 6.5, modulator: ogerin), -0.953. In addition, the surface expression score in data set [2] is 0.401.

With Q79M, the cAMP reporter score in data set [1] (pH 5.5) was -1.01; in data set [1] (pH 6), -0.526; in data set [1] (pH 6, modulator: ogerin), -0.905; in data set [1] (pH 6.5, modulator: ogerin) it was -1.57. In data set [2], the surface expression score was -0.389.

Turning to Q79H, the cAMP reporter score was -1.33 in data set [1] (pH 5.5); -1.43 in data set [1] (pH 6); -1.22 in data set [1] (pH 6, modulator: ogerin); -0.889 in data set [1] (pH 6.5, modulator: ogerin). The surface expression score in data set [2] is 0.207.

On to Q79Y, for which the cAMP reporter score in data set [1] (pH 5.5) was -0.706; in data set [1] (pH 6), -0.422; in data set [1] (pH 6, modulator: ogerin), -1.35; in data set [1] (pH 6.5, modulator: ogerin), -1.09. Further, in data set [2], the surface expression score was 1.95.

Regarding Q79E, the cAMP reporter score in data set [1] (pH 5.5) was 0.498; in data set [1] (pH 6) it was 3.83; in data set [1] (pH 6, modulator: ogerin), 1.18; in data set [1] (pH 6.5, modulator: ogerin) it was 2.72. In addition, the surface expression score in data set [2] was -0.346.

As for Q79V, the cAMP reporter score in data set [1] (pH 5.5) is -1.19; in data set [1] (pH 6) it was -1.05; in data set [1] (pH 6, modulator: ogerin), -1.93; in data set [1] (pH 6.5, modulator: ogerin) it was -0.785. Also, in data set [2], the surface expression score stood at 0.377.
